{"source": "paper PMC12820563", "note": "This is one part of the list. The list includes weakly bound sequences."}
{"target": "T1, MBP-FoxP3dN (UniProt Q99JB6)", "T1 sequence": "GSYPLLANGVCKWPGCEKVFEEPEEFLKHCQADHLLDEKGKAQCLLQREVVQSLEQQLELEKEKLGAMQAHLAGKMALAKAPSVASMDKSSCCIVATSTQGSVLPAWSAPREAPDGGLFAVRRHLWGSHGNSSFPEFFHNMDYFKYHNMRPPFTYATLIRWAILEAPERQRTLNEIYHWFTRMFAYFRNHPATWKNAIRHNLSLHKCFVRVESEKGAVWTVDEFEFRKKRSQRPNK", "assay": "PD-seq (MBP pull-down with sequencing)", "conditions": "20 mM Tris-HCl pH 7.5, 100 mM NaCl, 1.5 mM MgCl2, 0.4 uM protein, 0.1 uM dsDNA library, 30 min, room temperature, amylose pull-down; high values mean tight binding; double strand, one strand shown"}
{"sequence": "GATGATTGTTCTCCCAGCTGATGAATTTCGTTCGTCGAGTAAACAAATTTTCCTAATCTTTCTGTTCAAGCGCCATCTAC", "binding signal (RPM ratio (pull-down/input))": 0.53}
{"sequence": "GATGATTGTTCTCCCAGCTGATGAATTTGAGTCTTCGAGTAAACAAATTTTCCTAATCTTTCTGTTCAAGCGCCATCTAC", "binding signal (RPM ratio (pull-down/input))": 0.761}
{"sequence": "GATGATTGTTCTCCCAGCTGATGAATTGGGGCCTTCGAGTAAACAAATTTTCCTAATCTTTCTGTTCAAGCGCCATCTAC", "binding signal (RPM ratio (pull-down/input))": 1.38}
{"sequence": "GATGATTGTTCTCCCAGCTGATGAATTGTGGCATTCGAGTAAACAAATTTTCCTAATCTTTCTGTTCAAGCGCCATCTAC", "binding signal (RPM ratio (pull-down/input))": 6.18}
{"sequence": "GATGATTGTTCTCCCAGCTGATGAATTGCAGACTTCGAGTAAACAAATTTTCCTAATCTTTCTGTTCAAGCGCCATCTAC", "binding signal (RPM ratio (pull-down/input))": 0.742}
{"sequence": "GATGATTGTTCTCCCAGCTGATGAATTATCCGGCTCGAGTAAACAAATTTTCCTAATCTTTCTGTTCAAGCGCCATCTAC", "binding signal (RPM ratio (pull-down/input))": 0.196}
{"sequence": "GATGATTGTTCTCCCAGCTGATGAATTGGATCTATCGAGTAAACAAATTTTCCTAATCTTTCTGTTCAAGCGCCATCTAC", "binding signal (RPM ratio (pull-down/input))": 0.344}
{"sequence": "GATGATTGTTCTCCCAGCTGATGAATTTCGGGCCTCGAGTAAACAAATTTTCCTAATCTTTCTGTTCAAGCGCCATCTAC", "binding signal (RPM ratio (pull-down/input))": 0.404}
{"sequence": "GATGATTGTTCTCCCAGCTGATGAATTGTATGAATCGAGTAAACAAATTTTCCTAATCTTTCTGTTCAAGCGCCATCTAC", "binding signal (RPM ratio (pull-down/input))": 0.556}
{"sequence": "GATGATTGTTCTCCCAGCTGATGAATTGGAGCTGTCGAGTAAACAAATTTTCCTAATCTTTCTGTTCAAGCGCCATCTAC", "binding signal (RPM ratio (pull-down/input))": 0.312}
{"sequence": "GATGATTGTTCTCCCAGCTGATGAATTAAGCCTCTCGAGTAAACAAATTTTCCTAATCTTTCTGTTCAAGCGCCATCTAC", "binding signal (RPM ratio (pull-down/input))": 5.69}
{"sequence": "GATGATTGTTCTCCCAGCTGATGAATTACAGAACTCGAGTAAACAAATTTTCCTAATCTTTCTGTTCAAGCGCCATCTAC", "binding signal (RPM ratio (pull-down/input))": 0.283}
{"sequence": "GATGATTGTTCTCCCAGCTGATGAATTGTGCGAGTCGAGTAAACAAATTTTCCTAATCTTTCTGTTCAAGCGCCATCTAC", "binding signal (RPM ratio (pull-down/input))": 1.74}
{"sequence": "GATGATTGTTCTCCCAGCTGATGAATTGTTATAGTCGAGTAAACAAATTTTCCTAATCTTTCTGTTCAAGCGCCATCTAC", "binding signal (RPM ratio (pull-down/input))": 0.971}
{"sequence": "GATGATTGTTCTCCCAGCTGATGAATTCCTTACATCGAGTAAACAAATTTTCCTAATCTTTCTGTTCAAGCGCCATCTAC", "binding signal (RPM ratio (pull-down/input))": 0.309}
{"sequence": "GATGATTGTTCTCCCAGCTGATGAATTACTAGCCTCGAGTAAACAAATTTTCCTAATCTTTCTGTTCAAGCGCCATCTAC", "binding signal (RPM ratio (pull-down/input))": 0.45}
{"sequence": "GATGATTGTTCTCCCAGCTGATGAATTCCGGAATTCGAGTAAACAAATTTTCCTAATCTTTCTGTTCAAGCGCCATCTAC", "binding signal (RPM ratio (pull-down/input))": 0.499}
{"sequence": "GATGATTGTTCTCCCAGCTGATGAATTTAGTCAATCGAGTAAACAAATTTTCCTAATCTTTCTGTTCAAGCGCCATCTAC", "binding signal (RPM ratio (pull-down/input))": 0.393}
{"sequence": "GATGATTGTTCTCCCAGCTGATGAATTTGGCGACTCGAGTAAACAAATTTTCCTAATCTTTCTGTTCAAGCGCCATCTAC", "binding signal (RPM ratio (pull-down/input))": 1.79}
{"sequence": "GATGATTGTTCTCCCAGCTGATGAATTTAGGTAATCGAGTAAACAAATTTTCCTAATCTTTCTGTTCAAGCGCCATCTAC", "binding signal (RPM ratio (pull-down/input))": 0.861}
{"sequence": "GATGATTGTTCTCCCAGCTGATGAATTGCGATGGTCGAGTAAACAAATTTTCCTAATCTTTCTGTTCAAGCGCCATCTAC", "binding signal (RPM ratio (pull-down/input))": 1.01}
{"sequence": "GATGATTGTTCTCCCAGCTGATGAATTTACTGTGTCGAGTAAACAAATTTTCCTAATCTTTCTGTTCAAGCGCCATCTAC", "binding signal (RPM ratio (pull-down/input))": 1.6}
{"sequence": "GATGATTGTTCTCCCAGCTGATGAATTTGTACCTTCGAGTAAACAAATTTTCCTAATCTTTCTGTTCAAGCGCCATCTAC", "binding signal (RPM ratio (pull-down/input))": 2.49}
{"sequence": "GATGATTGTTCTCCCAGCTGATGAATTAAAAAGCTCGAGTAAACAAATTTTCCTAATCTTTCTGTTCAAGCGCCATCTAC", "binding signal (RPM ratio (pull-down/input))": 0.215}
{"sequence": "GATGATTGTTCTCCCAGCTGATGAATTTGAACCCTCGAGTAAACAAATTTTCCTAATCTTTCTGTTCAAGCGCCATCTAC", "binding signal (RPM ratio (pull-down/input))": 0.333}
{"sequence": "GATGATTGTTCTCCCAGCTGATGAATTATAACCCTCGAGTAAACAAATTTTCCTAATCTTTCTGTTCAAGCGCCATCTAC", "binding signal (RPM ratio (pull-down/input))": 0.348}
{"sequence": "GATGATTGTTCTCCCAGCTGATGAATTTGGCGCTTCGAGTAAACAAATTTTCCTAATCTTTCTGTTCAAGCGCCATCTAC", "binding signal (RPM ratio (pull-down/input))": 0.966}
{"sequence": "GATGATTGTTCTCCCAGCTGATGAATTACAATTTTCGAGTAAACAAATTTTCCTAATCTTTCTGTTCAAGCGCCATCTAC", "binding signal (RPM ratio (pull-down/input))": 0.648}
{"sequence": "GATGATTGTTCTCCCAGCTGATGAATTGCTCATGTCGAGTAAACAAATTTTCCTAATCTTTCTGTTCAAGCGCCATCTAC", "binding signal (RPM ratio (pull-down/input))": 0.617}
{"sequence": "GATGATTGTTCTCCCAGCTGATGAATTCAACAACTCGAGTAAACAAATTTTCCTAATCTTTCTGTTCAAGCGCCATCTAC", "binding signal (RPM ratio (pull-down/input))": 0.576}
{"sequence": "GATGATTGTTCTCCCAGCTGATGAATTTTAGTTTTCGAGTAAACAAATTTTCCTAATCTTTCTGTTCAAGCGCCATCTAC", "binding signal (RPM ratio (pull-down/input))": 0.82}
{"sequence": "GATGATTGTTCTCCCAGCTGATGAATTCTTATGCTCGAGTAAACAAATTTTCCTAATCTTTCTGTTCAAGCGCCATCTAC", "binding signal (RPM ratio (pull-down/input))": 0.443}
{"sequence": "GATGATTGTTCTCCCAGCTGATGAATTCTATTATTCGAGTAAACAAATTTTCCTAATCTTTCTGTTCAAGCGCCATCTAC", "binding signal (RPM ratio (pull-down/input))": 5}
{"sequence": "GATGATTGTTCTCCCAGCTGATGAATTGATACCATCGAGTAAACAAATTTTCCTAATCTTTCTGTTCAAGCGCCATCTAC", "binding signal (RPM ratio (pull-down/input))": 1.06}
{"sequence": "GATGATTGTTCTCCCAGCTGATGAATTGAGCTAATCGAGTAAACAAATTTTCCTAATCTTTCTGTTCAAGCGCCATCTAC", "binding signal (RPM ratio (pull-down/input))": 0.288}
{"sequence": "GATGATTGTTCTCCCAGCTGATGAATTGCGTCGTTCGAGTAAACAAATTTTCCTAATCTTTCTGTTCAAGCGCCATCTAC", "binding signal (RPM ratio (pull-down/input))": 1.4}
{"sequence": "GATGATTGTTCTCCCAGCTGATGAATTAACACAGTCGAGTAAACAAATTTTCCTAATCTTTCTGTTCAAGCGCCATCTAC", "binding signal (RPM ratio (pull-down/input))": 0.382}
{"sequence": "GATGATTGTTCTCCCAGCTGATGAATTCGAACGTTCGAGTAAACAAATTTTCCTAATCTTTCTGTTCAAGCGCCATCTAC", "binding signal (RPM ratio (pull-down/input))": 0.341}
{"sequence": "GATGATTGTTCTCCCAGCTGATGAATTACATTACTCGAGTAAACAAATTTTCCTAATCTTTCTGTTCAAGCGCCATCTAC", "binding signal (RPM ratio (pull-down/input))": 0.861}
{"sequence": "GATGATTGTTCTCCCAGCTGATGAATTCCATAAGTCGAGTAAACAAATTTTCCTAATCTTTCTGTTCAAGCGCCATCTAC", "binding signal (RPM ratio (pull-down/input))": 0.258}
